Measured values taken from paper PMC12136788.
The list shows a part of the results.

B1: chr8:26941818:26941819:-_ENSMUSG00000031575_ENSMUST00000166078|mus_hu|motif|central (ssRNA)
RNA: GGGAGUUCUACAGUCCGACGAUCACUAGUAGACACAGCACUGCUCUGUUUUUGGUUGUCAUAAGCAGGACCAAUGUUACGGAGGUCCUGAUCCAAAAGUCCAAAUUUGGGGUAAUCUUCUUCUGGAUCUUUACUGCCUGGAUCCAACAGAGGAUUGAGCAUCA
B2: chr2:32640565:32640566:+_ENSG00000115760_ENST00000421745|hu_hu|FALSE|FALSE (ssRNA)
RNA: GGGAGUUCUACAGUCCGACGAUCGCAUGUCCGCAGUCCUACCAACAAAUGAAUUCCGUCAGCACAAGGAGUUAUUGAGUCUAUACAAAGAUUCUCCUCCUCUGCAAACUUUGGCAGCCUCAAGCACUGAACCAAAGUCCCAGGCAACAGAGGAUUGAGCAUCA
B3: chr14:57741442:57741443:+_ENSG00000053770_ENST00000261558|hu_mus|FALSE|FALSE (ssRNA)
RNA: GGGAGUUCUACAGUCCGACGAUCAACUUUCCAGGCUGGCUGUUUUUGCGGCUGAGUCACAGAUACGGAAUUAAUGCUAUUCAGUGAAUUCUGCAAGUUAGCAUCCAAUAAAGUACCCAAAGGACAAGCCUGUAGAAGCAAGUCCAACAGAGGAUUGAGCAUCA
B4: chr12:121861850:121861851:+_ENSG00000170633_ENST00000361234|hu_hu|motif|central (ssRNA)
RNA: GGGAGUUCUACAGUCCGACGAUCCAGCAACAAUGUGGAAACUUACAUUCAUCAAAUGUUAGCAUUUAAAAUAUACAUGACGGAUAAAGUGAACAUUCAGAGGAGCCACUGCUCAGCAUGUUCCAUGUCGGCCACUUGUGGACACAACAGAGGAUUGAGCAUCA
B5: chr3:41268740:41268741:+_ENSG00000168036_ENST00000349496|perfect_dup|motif|central (ssRNA)
RNA: GGGAGUUCUACAGUCCGACGAUCCACUCUGCUUGUGGUCCACAGAAGCUUCUCAUAAGUGUAGGUCCUCAUUAUGUUUACGGAGGCUUGGGGUCCACCACUGGCCAGAAUGAUGAGCUUGCUCUCUUGAUUGCCAUAAGCUAACAACAGAGGAUUGAGCAUCA
B6: 107755969_107762763_258_5pUTR_ENSMUSG00000032582_ENSMUST00000035201|mouse|control|control (ssRNA)
RNA: GGGAGUUCUACAGUCCGACGAUCCAACAUGACUGCUGCAGAAAAAGCUUUCACCCAGUCCGAAAAGGUCCUGUUCUGUUAGCAGAUCGAGAAUCCCCCCACAUCUCUUUCUAUGUCAAGAAAGCUUCAAUAAGUAGAUCUUUUCAACAGAGGAUUGAGCAUCA

These binders were tested against T1, UNK ZnF1-3 (human, UniProt Q9C0B0 31-174) (assay: nsRBNS (natural sequence RNA bind-n-seq); RBNS binding buffer (assumed for nsRBNS): 25 mM Tris pH 7.5, 150 mM KCl, 3 mM MgCl2, 0.01% Triton X-100, 500 ug/ml BSA, 20 U/ml SUPERase-In, 4 C; UNK is unkempt and MSI1 is Musashi-1; names of the RNAs are library labels; protein concentration not given here; high values mean tight binding).
T1 sequence: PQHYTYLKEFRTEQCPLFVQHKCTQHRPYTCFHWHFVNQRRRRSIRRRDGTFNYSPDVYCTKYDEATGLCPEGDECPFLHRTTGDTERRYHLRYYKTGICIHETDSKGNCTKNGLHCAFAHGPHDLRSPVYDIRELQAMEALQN
With B1 the binding signal was 0.636 enrichment R.
B2 was tested, and the binding signal was 0.791 enrichment R.
For B3, the binding signal was 0.954 enrichment R.
With B4 the binding signal was 1.31 enrichment R.
For B5, the binding signal was 1.29 enrichment R.
Binder B6 has a binding signal of 0.949 enrichment R.
